The structures appear in SMILES notation. This is one part of the list. These are further read-outs of the screen, such as a control signal, another cell line or another target. No call is given for them. Compounds called inactive in the main read-out are mostly missing here.

This assay can be described thus: inhibitors of hepatocyte lipid droplet formation, primary screen, imaging, high-throughput imaging, BODIPY stain (AID 1656).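 Further: cells counted across two imaged fields per well.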 Conditions: AML12 mouse hepatocytes, oleate lipid droplets, measured here: cell count, cytotoxicity flag, at 6.5 µM. In outline:
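System: AML12 hepatocytes (mouse). Probe or stimulus: oleic acid at 100 µM to induce lipid droplet formation. Times: overnight treatment with compound plus oleate. Detection: Image-based BODIPY and DAPI two-channel analysis. Evaluation: percent inhibition of filter-corrected integrated lipid droplet intensity per well.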
As for `CCOc1ccc(CCNC(=O)COC(=O)c2ccc(OC)c(OC)c2OC)cc1OCC`, the cell count came out at 737 cells.

Turning to `CC1CCCN(C2=C(NS(=O)(=O)c3ccc(Br)cc3)C(=O)c3ccccc3C2=O)C1` (stereo not drawn), the cell count was found to be 680 cells. The molecule `N=c1c(C(=O)NCCN2CCOCC2)cc2c(=O)n3ccccc3nc2n1CCCN1CCOCC1` had a cell count of 717 cells. For `COc1cc2c3nnc(-c4ccc(F)cc4)c-3cn(Cc3cccc(C)c3)c2cc1OC`, the cell count stood at 678 cells. The result for `COc1ccccc1NS(=O)(=O)c1cc(NC(=O)c2cc3ccccc3oc2=O)ccc1C` reads 680 cells. As for `Cc1ccc(N(C(=O)CCl)C(C(=O)NC2CCCCC2)c2cccnc2)cc1C` (stereo not drawn), the cell count is 107 cells. The result for `COC(=O)c1c(N2C(=O)[C@H]3[C@@H](C2=O)[C@]2(C(=O)Nc4c(C)cc(C)cc42)N2CCC[C@@H]32)sc(C)c1C` reads 693 cells; that for `O=C(NCCc1nc2ccccc2[nH]1)c1ccc(Br)o1`, 798 cells; that for `CCCCn1c(O)c(/C=C/C=C/C=Nc2ccccc2)sc1=S`, 691 cells.

On to `COC(=O)c1cc(C(=O)N2CCN(c3cccc(Cl)c3)CC2)cc([N+](=O)[O-])c1`, for which the cell count came to 280 cells. `CCOC(=O)C(=NC(C)CC)NNc1ccc(Br)cc1` (stereo not drawn) registered a cell count of 283 cells.

Take `C/C(=C\c1cccc(Cl)c1Cl)C(=O)c1c(C)cc(C)[nH]c1=O`: the cell count was determined as 821 cells. The result for `CCC(=O)N1N=C(c2cccc(NS(C)(=O)=O)c2)CC1c1cccs1` (stereo not drawn) reads 273 cells; that for `CN1C(=O)[C@H]2[C@@H](C3CC3)N3C(=O)CN(Cc4ccccn4)C(=O)[C@@]3(Cc3ccccc3)[C@H]2C1=O`, 810 cells. The result for `CCCCN(C(=O)CCC(=O)Nc1cc(C)on1)C(C(=O)NC1CCCC1)c1ccc(OCC)cc1` (stereo not drawn) reads 797 cells; that for `O=C(CCl)N=c1sccn1Cc1ccccc1Cl`, 64 cells. The result for `CC(C)c1ccc(C2C3=C(COC3=O)Nc3cc4c(cc32)OCO4)cc1` (stereo not drawn) reads 227 cells. For the molecule `CC(C)Oc1ccc(C(=O)OC(C)C(=O)NC2CCCCC2C)cc1` (stereo not drawn), the cell count was 718 cells.

In turn, `Cc1cc2cc(CCNC(=O)c3cccc([N+](=O)[O-])c3)c(=O)[nH]c2cc1C` registered a cell count of 280 cells. Consider `O=c1cc(-c2ccccc2)[nH]c2ccc(F)cc12`, for which the cell count was 177 cells.

For `CC(C)(C)OC(=O)N1CCN(c2ccc(NC(=O)Cn3nnc(-c4ccccc4)n3)cc2)CC1`, the cell count turned out to be 635 cells. Molecule `O=C(CNCCC1=CCCCC1)Nc1ccccc1N1CCCCC1` came in with a cell count of 474 cells. The result for `Cc1ccc(C(=O)Sc2cccccc2=O)cc1` reads 293 cells. The result for `CCOc1ccc(CCNC(=O)CCS(=O)(=O)c2ccc(C)cc2)cc1OCC` reads 401 cells; that for `O=c1[nH]c(CSc2nnc(-c3ccccc3)n2-c2ccccc2)nc2ccccc12`, 728 cells; that for `CCOc1ccccc1Nc1nnc(SCC(=O)Nc2nc(-c3ccc(OC)cc3)cs2)s1`, 625 cells. The result for `CC(C)COc1cccc(-c2cc(C(=O)Nc3ccon3)c3ccccc3n2)c1` reads 796 cells; that for `CC1CN(c2ccc(C(F)(F)F)cc2[N+](=O)[O-])CCN1S(C)(=O)=O` (stereo not drawn), 265 cells. With `COc1nc(C)nc2c1ccc1ccccc12`, the cell count amounted to 744 cells. Consider `COc1ccc(C(C(=O)NC(C)(C)C)N(Cc2ccccc2)C(=O)CCC(=O)Nc2cc(C)on2)cc1` (stereo not drawn), for which the cell count was found to be 706 cells. Turning to `Cc1cccc(Oc2ccc(Cl)cc2N)c1`, the cell count was 720 cells.

In the case of `CCOc1ccc(C(=O)Nc2ccc(NC(=S)NC(=O)CC)cc2)cc1Cl`, the cell count turned out to be 692 cells.

In turn, `O=C(NCc1ccco1)c1ccc(Cn2c(=O)c3ccccc3n(Cc3ccc(Cl)cc3)c2=O)cc1` returned a cell count of 805 cells. `COc1ccc(CNC(=O)CCCCCn2c(SCC#N)nc3cc4c(cc3c2=O)OCO4)cc1`: the cell count came to 671 cells. In turn, `COc1ccccc1NC(=O)c1cnc(Nc2ccccc2OC)c2ccccc12` showed a cell count of 253 cells.

As for `CCOc1ccc(CCNC(=O)CCOc2cc(C)ccc2C)cc1OCC`, the cell count stood at 770 cells.

Molecule `COc1ccccc1NC(=S)N(Cc1ccco1)Cc1cc2ccc(C)c(C)c2[nH]c1=O` came in with a cell count of 148 cells. `O=C1c2ccccc2C2=Nc3ccccc3SC(c3cccc(F)c3)C12` (stereo not drawn) gave a cell count of 650 cells. The result for `CC(=O)c1c(C)n([O-])c2cc(F)c(F)cc2[n+]1=O` reads 132 cells; that for `COc1ccc(C(C(=O)NC(C)(C)C)N(Cc2cccs2)C(=O)CCC(=O)Nc2cc(C)on2)cc1` (stereo not drawn), 767 cells. The result for `Clc1cccc(Nc2nc(-c3ccncc3)cs2)c1` reads 319 cells.

With `CCOc1ccccc1N=Nc1c(C)[nH]n(-c2ccccc2)c1=O`, the cell count is 866 cells. The result for `Cc1cc2c(cc1S(=O)(=O)Nc1c(C)cccc1C)n(C)c(=O)c(=O)n2C` reads 791 cells; that for `COc1ccc2c(c1)c(CC(=O)Nc1ccc(C(C)=O)cc1)c(C)n2C(=O)c1ccc(Cl)cc1`, 691 cells; that for `COc1ccccc1C1(O)CCN(CC(=O)Nc2nc(-c3ccccc3)cs2)CC1`, 705 cells. `COc1ccc(-n2c(SCc3ccc([N+](=O)[O-])cc3)nnc2-c2ccccc2)cc1`: the cell count is 254 cells. The result for `COc1ccc(C(C(=O)NC2CCCCC2)N(C(=O)CCl)c2cccc(Cl)c2)cc1` (stereo not drawn) reads 126 cells; that for `Nc1nc(-c2ccccc2)c(N=Nc2cccc3ccccc23)s1`, 346 cells; that for `CCCCc1ccc(NC(=O)CSc2nc3ncccc3[nH]2)cc1`, 759 cells. The result for `CCOC(=O)N1CCN(C(=O)CSCC(=O)Nc2nc(-c3ccc(-c4ccccc4)cc3)cs2)CC1` reads 640 cells; that for `O=C(c1ccco1)N1CCN(C(=O)N2c3ccccc3Sc3ccccc32)CC1`, 292 cells. The result for `CCCCOc1ccc(C(=O)Nc2cc(C)c(OCC(=O)N3CCOCC3)c(C)c2)cc1` reads 728 cells.

As to `CCOc1ccc(CCNC(=O)COC(=O)c2cc(OC)c(OC)c(OC)c2)cc1OCC`, the cell count worked out at 689 cells.

`Cc1ccsc1/C=N/NC(=O)c1cc(-c2ccncc2)nc2ccccc12` had a cell count of 74 cells. The result for `CCn1c(=O)c2cc(C(=O)NCCC(C)C)sc2c2ccccc21` reads 815 cells. Consider `CCOC(=O)c1ccc(S(=O)(=O)Nc2ccc(N3CCOCC3)cc2)cc1`, for which the cell count amounted to 785 cells. For the molecule `COc1ccc(NC(=S)NC(=O)c2ccccc2Cl)cc1`, the cell count turned out to be 690 cells.

In the case of `COc1ccc(N=C2C(=Nc3ccc(OC)cc3)N(c3ccc(OC)cc3)C(=S)N2C)cc1`, the cell count was determined as 792 cells. The result for `CCOC(=O)c1c(C)[nH]c(N=Nc2ccccc2C)c1C` reads 719 cells; that for `COC(=O)/C(=C/c1ccc2c(c1)c1ccccc1n2C)NC(=O)c1ccccc1`, 713 cells. The result for `Cc1nnc(SCC(=O)Nc2cc(-c3cc(C)c(C)cc3C)nn2-c2ccccc2)s1` reads 727 cells; that for `CC(C)c1ccc(/C=C(\c2nc3ccccc3[nH]2)S(=O)(=O)c2ccccc2)cc1`, 448 cells; that for `Cc1nn(-c2ccccc2)c(C)c1/C=N/NC(=O)c1cc(-c2cccs2)[nH]n1`, 243 cells. The result for `COc1ccc(CCNC(=O)C(=O)NCC2OCCN2S(=O)(=O)c2ccc(Br)cc2)cc1OC` (stereo not drawn) reads 284 cells. As for `COc1c([N+](=O)[O-])cc(C(=O)NNC(=O)c2ccc(C)cc2)cc1[N+](=O)[O-]`, the cell count amounted to 761 cells. In the case of `CCc1ccc(OCc2ccc(C(=O)O)o2)cc1`, the cell count was 822 cells. The result for `Cc1ccc(-n2nc3c(=O)n(C(C)C(=O)NCCC4=CCCCC4)nc(C)c3c2C)cc1` (stereo not drawn) reads 729 cells; that for `COc1ccc(C(=O)CSc2nnc(CC(=O)Nc3ccccc3OC)n2C)cc1`, 755 cells; that for `CCOC(=O)CSC1=C(C#N)C(c2ccc(C)o2)CC(=O)N1` (stereo not drawn), 128 cells. The result for `COc1cc2c(cc1NC(=O)COC(=O)/C=C/c1ccccc1)oc1ccccc12` reads 209 cells; that for `Cc1ccc(C(=O)c2cc([N+](=O)[O-])ccc2N2CCCCC2)cc1`, 143 cells; that for `CCOc1ccc(CCNC(=O)CSc2cc(=O)n(C)c3cc(Cl)ccc23)cc1OCC`, 695 cells. The result for `CCCOC(=O)c1ccc(NC(=O)/C=C/c2cccs2)cc1` reads 734 cells.

In turn, `O=C(Nc1ccc(Cl)cc1C(=O)NCc1cccnc1)c1ccc(Cl)cc1Cl` came in with a cell count of 584 cells. The result for `COc1ccccc1/C=C1/SC(=O)N(CCC(=O)Nc2ccc(S(=O)(=O)Nc3nccs3)cc2)C1=O` reads 175 cells; that for `O=C(Cn1nc(-c2cccc(Cl)c2)ccc1=O)Nc1ccc(C(=O)NC2CC2)cc1`, 688 cells; that for `CC(C)Oc1ccc(C(=O)NC(=S)Nc2ccc(CN3CCOCC3)cc2)cc1`, 298 cells. The result for `COc1ccc(-c2coc3cc4oc(=O)c5ccccc5c4cc23)cc1F` reads 227 cells; that for `Cc1cc(N2CCOCC2)n2nc(C)c(-c3ccc(Cl)cc3)c2n1`, 810 cells. In the case of `COc1ccccc1N(CC(=O)N1CCCC1)S(=O)(=O)c1ccc(C)cc1`, the cell count turned out to be 240 cells. The result for `CSc1c(CC(=O)Nc2ccccc2C(F)(F)F)n(Cc2ccccc2)c2ccccc12` reads 582 cells; that for `CCOC(=O)C1=C(C)N=c2s/c(=C3\C(=O)Nc4ccccc43)c(=O)n2C1c1ccc2c(c1)OCO2` (stereo not drawn), 634 cells; that for `Cc1ccc(C(=O)Nc2ncc(Cc3ccc(SC(F)F)cc3)s2)cc1`, 219 cells. `CC1CCN(C2=C(NS(=O)(=O)c3ccc(Cl)cc3)C(=O)c3ccccc3C2=O)CC1` displayed a cell count of 557 cells. In turn, `CCOC(=O)/C(C(=O)Nc1ccccc1Cl)=C1/NC(C)(C)Cc2ccccc21` registered a cell count of 682 cells. On to `Cc1ccccc1OCc1nnc(SCC(=O)Nc2ccc3c(c2)oc2ccccc23)n1C`, for which the cell count was 612 cells. Molecule `Cc1cc(=O)oc2cc(OCC(=O)NC3CCN(Cc4ccccc4)CC3)c(Cl)cc12` returned a cell count of 709 cells. The result for `CCN(CCn1cccn1)C(=O)c1cc(COc2ccc(F)cc2Cl)on1` reads 655 cells; that for `O=C/C=C/c1c(-c2ccccc2)cc2oc3ccccc3cc1-2`, 661 cells. The result for `CCCCc1ccc(N=N/C(C(=O)Nc2cc(OC)c(NC(C)=O)cc2OC)=C(/C)O)cc1` reads 513 cells; that for `COc1ccc(C)cc1NC(=O)C/C(C)=N/NC(=O)Cc1cccc2ccccc12`, 836 cells. The molecule `COc1nc(Nc2nc3ccccc3c(=O)[nH]2)nc2ccc(C)cc12` displayed a cell count of 136 cells. The result for `Nc1nc(-c2ccc(Cl)cc2)c(N=Nc2ccc(S(=O)(=O)N3CCOCC3)cc2)s1` reads 623 cells; that for `Cc1cccc(/C=N/Nc2cc(N3CCOCC3)nc(N3CCOCC3)n2)c1`, 601 cells.

Turning to `O=C(Nc1cccc(Cn2cccn2)c1)c1cc2c(s1)CCCC2`, the cell count came out at 808 cells. For `COc1cccc2c1C(=O)c1c(O)c3c(c(O)c1C2=O)C[C@@](O)(C(=O)CO)C[C@@H]3O[C@H]1C[C@H](N)[C@H](O)[C@H](C)O1`, the cell count was 218 cells.

As to `CCOC(=O)c1ccc(NC(=O)CCOc2ccc(C)cc2)cc1`, the cell count came to 808 cells. For the molecule `O=C1C(NS(=O)(=O)c2cccs2)=C(N2CCN(c3cccc(C(F)(F)F)c3)CC2)C(=O)c2ccccc21`, the cell count amounted to 753 cells.
